In publication PMC4598080 one finds binding data, which are given here for two molecules.

Protein sequences, listed by entry. Tags and fused reporters are not part of them. Lines headed by an entry give the natural chain unless they say otherwise; changes in a name come on top. Chains listed by the source or under a name are the forms on record and can include a tag or linker. Residues count along the entry.
UniProt P10664: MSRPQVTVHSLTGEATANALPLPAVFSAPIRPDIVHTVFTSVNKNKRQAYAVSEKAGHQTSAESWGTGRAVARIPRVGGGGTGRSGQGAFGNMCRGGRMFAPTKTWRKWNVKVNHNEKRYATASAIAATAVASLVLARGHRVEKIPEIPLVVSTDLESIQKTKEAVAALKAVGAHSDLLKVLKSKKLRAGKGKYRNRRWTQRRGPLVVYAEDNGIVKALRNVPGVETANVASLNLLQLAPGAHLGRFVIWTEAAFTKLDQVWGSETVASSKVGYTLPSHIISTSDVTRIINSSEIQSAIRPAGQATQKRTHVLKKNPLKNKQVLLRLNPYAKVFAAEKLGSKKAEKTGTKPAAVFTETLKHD
Rpl4a.N114 fused to the C-terminal Gal4 DNA-binding domain: residues 1-114 of P10664
Rpl4a amino acids 43-114 (long internal loop) fused to the C-terminal Gal4 DNA-binding domain: residues 43-114 of P10664
Rpl4a amino acids 72-114 with a C-terminal (His)6 tag: residues 72-114 of P10664
Rpl4a amino acids 88-264 fused to the C-terminal Gal4 DNA-binding domain: residues 88-264 of P10664
Rpl4a amino acids 96-264 fused to the C-terminal Gal4 DNA-binding domain: residues 96-264 of P10664
Rpl4a block-I mutant fused to the C-terminal Gal4 DNA-binding domain (P10664, form named): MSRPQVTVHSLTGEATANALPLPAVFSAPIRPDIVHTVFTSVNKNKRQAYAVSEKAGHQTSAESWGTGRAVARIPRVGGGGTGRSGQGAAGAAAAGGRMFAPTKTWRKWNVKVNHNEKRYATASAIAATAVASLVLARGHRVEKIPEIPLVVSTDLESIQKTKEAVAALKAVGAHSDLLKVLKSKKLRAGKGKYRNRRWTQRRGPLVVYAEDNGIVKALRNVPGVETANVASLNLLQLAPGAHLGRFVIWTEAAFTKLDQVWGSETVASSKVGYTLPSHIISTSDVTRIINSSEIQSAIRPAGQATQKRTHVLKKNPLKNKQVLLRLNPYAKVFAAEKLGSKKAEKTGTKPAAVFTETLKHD
Rpl4a block-II mutant fused to the C-terminal Gal4 DNA-binding domain (P10664, form named): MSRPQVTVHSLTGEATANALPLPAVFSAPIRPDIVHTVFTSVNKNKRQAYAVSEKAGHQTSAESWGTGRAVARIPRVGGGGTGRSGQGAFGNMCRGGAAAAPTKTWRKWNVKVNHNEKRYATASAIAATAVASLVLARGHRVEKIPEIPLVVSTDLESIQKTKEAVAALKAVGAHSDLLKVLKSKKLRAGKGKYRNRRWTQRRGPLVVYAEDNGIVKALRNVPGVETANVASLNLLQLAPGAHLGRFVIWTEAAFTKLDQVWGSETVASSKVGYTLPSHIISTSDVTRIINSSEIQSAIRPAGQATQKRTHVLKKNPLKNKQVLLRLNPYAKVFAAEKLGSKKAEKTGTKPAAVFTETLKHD
Rpl4a block-III mutant fused to the C-terminal Gal4 DNA-binding domain (P10664, form named): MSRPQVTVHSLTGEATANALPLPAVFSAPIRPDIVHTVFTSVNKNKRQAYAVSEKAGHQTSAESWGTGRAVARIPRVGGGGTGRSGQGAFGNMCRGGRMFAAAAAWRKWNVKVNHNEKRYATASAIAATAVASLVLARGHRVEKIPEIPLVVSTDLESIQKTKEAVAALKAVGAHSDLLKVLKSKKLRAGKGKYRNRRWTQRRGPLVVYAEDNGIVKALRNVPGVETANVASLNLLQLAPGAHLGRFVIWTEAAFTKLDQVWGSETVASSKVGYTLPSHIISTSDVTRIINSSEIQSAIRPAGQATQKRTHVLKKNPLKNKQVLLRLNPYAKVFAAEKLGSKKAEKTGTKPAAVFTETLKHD
Rpl4a block-IV mutant fused to the C-terminal Gal4 DNA-binding domain (P10664, form named): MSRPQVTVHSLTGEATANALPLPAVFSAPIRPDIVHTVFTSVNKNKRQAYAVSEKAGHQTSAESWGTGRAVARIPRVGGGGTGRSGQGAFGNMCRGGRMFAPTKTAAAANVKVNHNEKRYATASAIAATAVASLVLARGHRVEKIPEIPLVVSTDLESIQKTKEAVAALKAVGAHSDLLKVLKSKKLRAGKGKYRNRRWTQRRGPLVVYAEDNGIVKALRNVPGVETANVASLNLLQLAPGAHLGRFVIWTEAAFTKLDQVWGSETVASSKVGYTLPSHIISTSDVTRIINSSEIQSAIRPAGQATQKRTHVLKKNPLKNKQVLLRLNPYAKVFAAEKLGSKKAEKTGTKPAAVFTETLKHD
Rpl4a lacking the long internal loop (deletion of amino acids 46-110) fused to the C-terminal Gal4 DNA-binding domain (P10664, form named): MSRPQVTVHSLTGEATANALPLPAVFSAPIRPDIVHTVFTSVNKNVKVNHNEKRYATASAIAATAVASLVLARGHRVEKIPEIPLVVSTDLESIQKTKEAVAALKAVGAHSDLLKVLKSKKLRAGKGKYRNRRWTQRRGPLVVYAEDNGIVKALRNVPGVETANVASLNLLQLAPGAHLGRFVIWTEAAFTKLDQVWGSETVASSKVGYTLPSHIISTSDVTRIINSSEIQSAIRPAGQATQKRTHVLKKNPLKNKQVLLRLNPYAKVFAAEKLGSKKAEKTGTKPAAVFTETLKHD

These are yes or no findings as the source states them, for the method shown. For some of these results: In cells and extracts the contact can be indirect. Some results given as binding are weak or reduced against the parent protein; the word gives no strength. Tags and fused reporters may be left off the sequences shown.

In experiment [1] the target is Rpl4a amino acids 43-114 (long internal loop) fused to the C-terminal Gal4 DNA-binding domain (S. cerevisiae) (UniProt P10664). In words: two-hybrid; Rpl4a variants fused to G4BD (bait) and Acl4 fused to G4AD (prey) in reporter strain PJ69-4A; growth on SC-His-Leu-Trp (HIS3) and SC-Ade-Leu-Trp (ADE2) plates, 3 d at 30°C.
The target in experiment [2] is Rpl4a amino acids 88-264 fused to the C-terminal Gal4 DNA-binding domain (S. cerevisiae) (UniProt P10664). The description is as above.
In experiment [3] the target is T1, Rpl4a amino acids 96-114 fused to the C-terminal Gal4 DNA-binding domain (S. cerevisiae) (UniProt P10664).
T1 sequence: GGRMFAPTKTWRKWNVKVN
The description is as above.

Experiment [4] concerns the target Rpl4a amino acids 96-264 fused to the C-terminal Gal4 DNA-binding domain (S. cerevisiae) (UniProt P10664). The experiment is described as above.
Experiment [5] addresses Rpl4a block-I mutant fused to the C-terminal Gal4 DNA-binding domain (S. cerevisiae) (UniProt P10664). The experiment is described as above.
Experiment [6] deals with Rpl4a block-II mutant fused to the C-terminal Gal4 DNA-binding domain (S. cerevisiae) (UniProt P10664). The description is as above.
Experiment [7] deals with Rpl4a block-III mutant fused to the C-terminal Gal4 DNA-binding domain (S. cerevisiae) (UniProt P10664). Described as above.
Experiment [8] has as its target Rpl4a block-IV mutant fused to the C-terminal Gal4 DNA-binding domain (S. cerevisiae) (UniProt P10664). Described as above.
The target of experiment [9] is Rpl4a lacking the long internal loop (deletion of amino acids 46-110) fused to the C-terminal Gal4 DNA-binding domain (S. cerevisiae) (UniProt P10664). The experiment is described as above.
Experiment [10] has as its target Rpl4a.N114 fused to the C-terminal Gal4 DNA-binding domain (S. cerevisiae) (UniProt P10664). The experiment is described as above.
In experiment [11] the target is full-length Rpl4a fused to the C-terminal Gal4 DNA-binding domain (S. cerevisiae) (UniProt P10664). Described as above.
The target of experiment [12] is Rpl4a amino acids 72-114 with a C-terminal (His)6 tag (S. cerevisiae) (UniProt P10664). Description: pull-down; Rpl4a-(His)6 variants co-expressed with Acl4-Flag in E. coli Rosetta(DE3); Ni-NTA agarose purification of the bait from soluble extract; 50 mM Tris-HCl pH 7.5, 200 mM NaCl, 1.5 mM MgCl2, 5% glycerol, 0.1% NP-40, 4°C; imidazole eluate, Coomassie and anti-Flag/anti-His blots.

Experiment [13] concerns the target full-length Rpl4a with a C-terminal (His)6 tag (S. cerevisiae) (UniProt P10664). Described as above.

B1: full-length Acl4 fused to the C-terminal Gal4 activation domain (protein, UniProt Q03771 1-387)
chain: MSELEATIRQAKEALAENNAKKALKILKPFKSSLKKENANNVILNEVFADAYLDNGQVEKAYPILARACELDPEGQVGGPDKFFTMGQIMGGQDGVSIITRGIMNISNTGGEMLTNVQVEKIVGGLLSVIEIWMTDLCMEPNAEEQCEELIQKAMELTEGKSPETWSTLGSIKISQQKFGEAYEAFSQAWNFFELKKQEIGSGINENGDTTQKAGLQSEYVDLLQPLLSLTKMCLEVGAYEVALKVIAAVRDIDEDNIEGYYLEGFTYYLMSKLEIFKLNNPEVSLRPENIYEFNQLIQEVPLDLSHEPISQLIYDSRLALSFALQAGVNADSKDEIVQELLGGANALLQEIGGPLDPSELTQIKKGDLVNENEDLEELDIEEEYSD
For the molecule B1, the binding entry in [1] is listed as “binds”; in experiment [2] it was “binds”; in [3], “no binding”; in experiment [4], “no binding”; in experiment [5] it was “no binding”; in experiment [6] it was “no binding”. Besides, the binding entry is “no binding” in experiment [7]; “no binding” in [8]; “no binding” in [9]; “binds” in [10]; “binds” in experiment [11].

B2: full-length Acl4-Flag (protein, UniProt Q03771 1-387)
chain: MSELEATIRQAKEALAENNAKKALKILKPFKSSLKKENANNVILNEVFADAYLDNGQVEKAYPILARACELDPEGQVGGPDKFFTMGQIMGGQDGVSIITRGIMNISNTGGEMLTNVQVEKIVGGLLSVIEIWMTDLCMEPNAEEQCEELIQKAMELTEGKSPETWSTLGSIKISQQKFGEAYEAFSQAWNFFELKKQEIGSGINENGDTTQKAGLQSEYVDLLQPLLSLTKMCLEVGAYEVALKVIAAVRDIDEDNIEGYYLEGFTYYLMSKLEIFKLNNPEVSLRPENIYEFNQLIQEVPLDLSHEPISQLIYDSRLALSFALQAGVNADSKDEIVQELLGGANALLQEIGGPLDPSELTQIKKGDLVNENEDLEELDIEEEYSD
Consider B2, for which the binding entry in experiment [12] and in experiment [13] was “binds” each time.
